Data published in PubChem BioAssay AID1030 (National Center for Advancing Translational Sciences (NCATS), 2008).
In all, about 220,000 compounds went through this assay and about 16,000 (7.3%) were called active. Inconclusive means that the source gave no clear call. Such entries were picked first, then a sample of the others. Calls follow the shape of the dose curve; as a rule, active = well fitted inhibition curve with a large enough effect (not every such curve was filed as active); inconclusive = small, poorly fitted or top-dose-only effect, or another doubt; inactive = no such curve, though single readings can be large or run the other way. Potencies of inconclusive entries are left out as doubtful fits.

Target: Aldehyde dehydrogenase 1A1 (Homo sapiens) (UniProt P00352)
Test: qHTS Assay for Inhibitors of Aldehyde Dehydrogenase 1 (ALDH1A1);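 as to activity, negative = inhibition: plate controls were no enzyme wells and a reference inhibitor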
Conditions: Purified ALDH1A1, NADH fluorescence, propionaldehyde substrate; series mostly up to 75.3 µM; activity, negative = inhibition: at the top concentration
Potency is read from the fitted curve at half-maximal effect; tags tell the direction and shape of the fitted curve.

UniProt P00352, sequence (P00352 whole entry, looked up): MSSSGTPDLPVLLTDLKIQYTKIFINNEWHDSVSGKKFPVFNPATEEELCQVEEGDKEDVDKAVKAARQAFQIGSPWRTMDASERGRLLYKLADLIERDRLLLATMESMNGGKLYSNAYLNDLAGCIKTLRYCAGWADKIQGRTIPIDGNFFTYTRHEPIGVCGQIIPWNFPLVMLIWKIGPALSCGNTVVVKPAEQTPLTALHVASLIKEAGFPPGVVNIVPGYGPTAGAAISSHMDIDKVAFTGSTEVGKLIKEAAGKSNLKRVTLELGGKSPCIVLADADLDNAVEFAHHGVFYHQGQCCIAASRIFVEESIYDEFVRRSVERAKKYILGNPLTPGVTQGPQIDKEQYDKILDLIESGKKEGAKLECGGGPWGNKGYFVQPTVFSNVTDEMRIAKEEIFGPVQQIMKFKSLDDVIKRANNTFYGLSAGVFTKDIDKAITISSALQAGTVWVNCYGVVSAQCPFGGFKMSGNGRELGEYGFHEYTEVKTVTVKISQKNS

SMILES | Potency | activity, negative = inhibition
Cn1ccnc1SCC(=O)c1cccc(Br)c1 | inconclusive [inhibitor, single point] | 
CCS(=O)(=O)N1N=C(c2ccc(NS(C)(=O)=O)cc2)CC1c1ccccc1 (stereo unspecified) | inconclusive [inhibitor, partial curve] | 
COc1ccc(NC(=O)c2ccc(Br)o2)c([N+](=O)[O-])c1 | inconclusive [inhibitor, full curve, poor fit] | 
Cc1ccc(-c2nc(C)sc2CC(=O)Nc2cccc(C)c2C)cc1 |  | inactive: -0.667%
CN(CCCNC(=O)Cn1cccc1C(=O)c1ccccc1)C1CCCCC1 |  | inactive: 4.69%
CCCC(=O)NC(=S)c1c(C)n(C)n(-c2ccccc2)c1=O | inconclusive [inhibitor, single point] | 
O=C(C1=C[C@H](C2CC2)C[C@H](OCc2ccc(CO)cc2)O1)N1CCN(Cc2ccccc2)CC1 |  | inactive: -3.33%
CC(=O)Nc1ccc(Nc2nc(C)nc3c2oc2ccccc23)cc1 | inconclusive [inhibitor, single point] | 
N#CC(c1ccc(F)cc1)c1ccc(C(=O)c2ccccc2)cc1 (stereo unspecified) |  | inactive: -39.4%
O=C(CN1CCN(Cc2ccccc2)CC1)c1ccc(Br)cc1 | active: 2.51 µM | 
Cc1cc2cc(C)c(NCCNC(=O)c3cccs3)nc2cc1C | inconclusive [inhibitor, partial curve, poor fit] | 
COc1ccc(C(=O)N[C@H](C(=O)Nc2nc3c(s2)CCCC3)C(C)C)cc1 | inconclusive [inhibitor, single point] | 
COc1ccc(OC(=O)c2cccnc2)cc1 |  | inactive: 3.27%
O=C(Nc1cccc2ccccc12)N1CC=CCC1 | inconclusive [inhibitor, single point] | 
CCN(CC)C(=O)CSc1nnc2cc(C)c3ccccc3n12 | inconclusive [inhibitor, partial curve] | 
COc1ccc(/C=C/C(=O)OCC(=O)NCc2ccco2)cc1OC | inconclusive [inhibitor, single point] | 
Cn1c(=O)[nH]c(=O)c2c1nc(N1CCCCCC1)n2Cc1cccc2ccccc12 | inconclusive [inhibitor, partial curve] | 
Cc1cccc(/C=N\NC(=O)c2ccccc2-n2cccc2)c1 |  | inactive: -6.49%
CCOC(=O)c1cc(-c2ccncc2)nc2c1c(C)nn2C | inconclusive [inhibitor, partial curve] | 
Cc1cc2ccccc2n1CCNC(=O)C(C)Oc1ccccc1 (stereo unspecified) | inconclusive [inhibitor, single point] | 
Nc1c(S(=O)(=O)c2cccs2)c2nc3ccccc3nc2n1Cc1cccs1 | inconclusive [inhibitor, partial curve] | 
Cc1cccc(NC(=O)/C(=C\c2cccs2)NC(=O)c2ccccc2)c1 | inconclusive [inhibitor, single point] | 
CCOC(=O)c1ccc(N2Cc3ccccc3C2)cc1O | active: 20 µM | 

SMILES | Potency | activity, negative = inhibition
CCOC(=O)C1=C(C)OC(N)=C(C#N)C1c1ccc(C)s1 (stereo unspecified) | active: 22.4 µM | 
O=C(Nc1ccc(Cc2ccncc2)cc1)C1CCC(N2C(=O)C3C4C=CC(C4)C3C2=O)CC1 (stereo unspecified) | inconclusive [inhibitor, partial curve] | 
Cc1noc(C)c1C(=O)OCC(=O)c1c(N)n(CC(C)C)c(=O)n(C)c1=O |  | inactive: 10.8%
CCCCCCCCCC(=O)Nc1cccnc1 |  | inactive: 2.39%
CCc1nc(NC(C)C)c2oc3ccccc3c2n1 | inconclusive [inhibitor, single point] | 
CCCCCC(=O)Nc1ccc(-c2cn3cccnc3n2)cc1 | inconclusive [inhibitor, partial curve] | 
O=C(Nc1ccc(Cl)cn1)c1cc(S(=O)(=O)N2CCCCC2)ccc1Cl | active: 28.2 µM | 
NC(=O)c1ccsc1NC(=O)c1ccc(N2CCCC2=O)cc1 | inconclusive [inhibitor, single point] | 
COC(=O)/C(=C/c1ccco1)NC(=O)c1ccc(Br)o1 | active: 20 µM | 
O=C(COC(=O)c1ccc(=O)n(Cc2ccccc2)n1)Nc1ccc2c(c1)OCCO2 | active: 8.91 µM | 
COC(=O)c1nn(-c2ccccc2)c(-c2ccccc2)c1C(=O)c1ccccc1 | inconclusive [inhibitor, single point] | 
COc1ccc2oc(C(F)(F)C(F)(F)F)cc(=O)c2c1 | inconclusive [inhibitor, single point] | 
Cc1ccc2[nH]c(=O)c(CN(CC3COCCO3)C(=O)Nc3ccccc3C)cc2c1 (stereo unspecified) | inconclusive [inhibitor, single point] | 
Fc1ccc2[nH]c3c(Cl)ncnc3c2c1 | inconclusive [inhibitor, single point] | 
CCC(=O)N(Cc1cc2cc(OC)ccc2[nH]c1=O)c1ccccc1C | inconclusive [inhibitor, partial curve] | 
CCc1ccc(-c2nc(CSCC(=O)N3CCN(c4ccccn4)CC3)c(C)o2)cc1 | inconclusive [inhibitor, partial curve] | 
COc1cc(C2C(C(=O)OC(C)C)=C(C)Nc3[nH]c(=O)[nH]c(=O)c32)ccc1O (stereo unspecified) |  | inactive: -0.474%
Cc1ccc(S(=O)(=O)N(C)CCCC(=O)Nc2cccc3ccccc23)cc1 |  | inactive: -5.46%
Cc1ccc(S(=O)(=O)c2cc3c(=O)n4ccccc4nc3n(C)c2=N)cc1 | inconclusive [inhibitor, partial curve] | 
Cc1ccc(N2C(=O)C3N=NN(CC(=O)N4N=C(c5cccc6ccccc56)CC4c4ccccc4)C3C2=O)cc1 (stereo unspecified) | inconclusive [inhibitor, partial curve] | 
Cn1c(Cn2nnc3ccccc32)nnc1SCC(=O)N1c2ccccc2CCc2ccccc21 | active: 8.91 µM | 
CC(C)(C)C1CC=C2C(C#N)=C(N)C(C#N)(C#N)C(c3cccs3)C2C1 (stereo unspecified) | inconclusive [inhibitor, single point] | 
Cc1cccc(Cn2ncc(Cl)c(Cl)c2=O)c1 | inconclusive [inhibitor, single point] | 
